Legend:
[1] = In vivo half-life (β-phase) in BALB/c SCID mice
SK-BR-3 cells [2] = assay: Proliferation assay (MTS), SK-BR-3; format: cell-based, human; settings: 5 days
Experimental: (§1) Cells were plated in 96 well plates at a density of 2,500 cells per well and incubated overnight. […] Antibodies were used at a concentration of 50 nM unless otherwise indicated. Dimethyl sulfoxide or phosphate buffered saline (PBS) were used as vehicle controls for lapatinib or HRG-β1/antibodies, respectively. After 5 days of incubation in a 37° C. 5% CO2 incubator, cell proliferation was quantitated using CellTiter 96 AQeous One Solution Proliferation Assay kit (Promega, catalog no. G3580) according to the manufacturer's instructions.

BT-474 cells [3] = assay: Proliferation assay (MTS), BT-474; format: cell-based, human; settings: 5 days
Experimental: as §1

HCC1419 cells [4] = assay: Proliferation assay (MTS), HCC1419; format: cell-based, human; settings: 5 days
Experimental: as §1

SK-BR-3 cells [5] = assay: Immunoblotting of cell lysates, SK-BR-3; format: cell-based, human
Experimental: (§2) Cells cultured to near confluence in 6 well plates were treated with lapatinib, HRG-β1 or antibodies as for proliferation assays. Following one or 24 hours incubation, cells were lysed using RIPA buffer (50 mM Tris, 150 mM NaCl, 0.5% sodium deoxycholate, 1% Triton X-100, 0.1% sodium dodecyl sulfate, 2 ug/mL aprotinin, 2 ug/mL leupeptin, 1 ug/mL pepstatin A, and 0.4 mg/mL pefabloc SC PLUS). Lysates were centrifuged for 20 minutes at 14,600 rpm at 4° C. and supernatants were collected. Protein concentrations in each lysate were determined using the BCA protein assay reagent (Pierce, catalog no. 23223). Total lysates were fractionated by SDS-PAGE and transferred onto polyvinylidene difluoride (PVDF) membranes (Millipore, catalog no. IPVH00010) or nitrocellulose membranes (Bio-Rad, catalog no 162.0145). Membranes were incubated with 5% bovine serum albumin in Tris-buffered saline with 0.1% Tween (TBST, pH 8.0) for 1 hour following transfer to block non-specific binding sites. Blocked membranes were incubated with primary antibodies overnight at 4° C. with agitation. Prior to incubation with the secondary antibodies conjugated to horseradish peroxidase, blots were washed three times (10 minutes/wash) with TB ST. Following incubation with secondary antibodies for 1 hour and washing, bound secondary antibody was detected using chemiluminescent detection regent (GE Healthcare, catalog no. RPN 2209/AF).

BT-474 cells [6] = assay: Immunoblotting of cell lysates, BT-474; format: cell-based, human; settings: 50 nM antibody
Experimental: as §2, with “Prior to incubation with the secondary antibodies conjugated to horseradish peroxidase, blots were washed three times (10 minutes/wash) with TB ST.” left out

HCC1419 cells [7] = assay: Immunoblotting of cell lysates, HCC1419; format: cell-based, human; settings: 50 nM antibody + 1 μM lapatinib + heregulin 6.25 nM, 24 hours
SK-BR-3 cells [8] = assay: Fluorescence microscopy of intracellular trafficking; format: cell-based, human; settings: 50 nM
From the text: The combined pulse plus chase times are indicated on the left margin. Anti-HER3 or HER2/HER3 antibodies were detected with Alexa 555-labeled secondary antibody (pseudocolored red in overlay) and anti-EEA-1 antibody with Alexa 647-labeled secondary antibody (pseudocolored green in overlay). […] Scale bars=2 μm.
Cells were fixed, permeabilized and stained for LAMP-1. Anti-HER3 or HER2/HER3 antibodies were detected with Alexa 555-labeled secondary antibody (pseudocolored red in overlay) and anti-LAMP-1 antibody with Alexa 488-labeled secondary antibody (pseudocolored green in overlay). […] Scale bars=2 μm.
For fixation, cells were treated with 1.7% (w/v) paraformaldehyde for 10 minutes at 37° C. and then permeabilized with 0.05% (v/v) saponin for 10 minutes at room temperature in PBS. A pre-block with 4% BSA/PBS was carried out prior to staining with 2 μg/mL of polyclonal rabbit anti-LAMP-1 antibody (Abcam, catalog no. AB24170) and 12.5 μg/mL monoclonal mouse anti-EEA-1 (clone 14) from BD Bioscience (catalog no. 610456) for 30 minutes at room temperature. After blocking for 30 minutes with goat serum (Sigma-Aldrich, catalog no. G6767), bound primary antibodies were detected by incubating cells with the following secondary antibody conjugates for 25 minutes at room temperature: Alexa 555-labeled goat anti-human IgG (H+L) (Life Technologies, catalog no. A21433), Alexa 647-labeled goat anti-mouse IgG (H+L) (Life Technologies, catalog no. A21236) and Alexa 488-labeled goat anti-rabbit IgG (H+L) (Life Technologies, catalog no. A11034). Cells were washed twice with PBS between each incubation step and were stored at 4° C. in 1% BSA/PBS.
Images were acquired using a Zeiss Axiovert 200M inverted fluorescence microscope with a 63× Plan Apochromat objective as described previously. Data was processed using custom written software in MatLab (MIAtool/LABSoft; www.wardoberlab.com/software/miatool/).

[9] = 50 nM antibody + 1 μM lapatinib + heregulin 6.25 nM
[10] = 50 nM antibody, no heregulin, no lapatinib
[11] = 50 nM antibody + heregulin 6.25 nM

B1: Ab6tet: tetrameric (tetravalent) anti-HER3 antibody: Ab6 scFv fused to the CH3 domains of Ab6 via a Gly-Ser-Ser linker (antibody)
heavy: QVQLQESGGGLVQPGGSLRLSCAASGFTFSHYVMAWVRQAPGKGLEWVSSISSSGGWTLYADSVKGRFTISRDNSKNTLYLQMNSLRAEDTAVYYCTRGLKMATIFDYWGQGTLVTVSS[in this place human IgG1 constant region]GSSQVQLLESGGGLVQPGGSLRLSCAASGFTFSHYVMAWVRQAPGKGLEWVSSISSSGGWTLYADSVKGRFTISRDNSKNTLYLQMNSLRAEDTAVYYCTRGLKMATIFDYWGQGTLVTVSSGGGGSGGGGSGGGGSDIQLTQPASVSGSPGQSITISCTGTSSDVGSYNVVSWYQQHPGKAPKLIIYEVSQRPSGVSNRFSGSKSGNTASLTISGLQTEDEADYYCCSYAGSSIFVIFGGGTKVTVL
light: DIELTQPASVSGSPGQSITISCTGTSSDVGSYNVVSWYQQHPGKAPKLIIYEVSQRPSGVSNRFSGSKSGNTASLTISGLQTEDEADYYCCSYAGSSIFVIFGGGTKLEIKRTVAAPSVFIFPPSDEQLKSGTASVVCLLNNFYPREAKVQWKVDNALQSGNSQESVTEQDSKDSTYSLSSTLTLSKADYEKHKVYACEVTHQGLSSPVTKSFNRGEC
in vivo half-lives (β-phase) [1]: 228 ± 14 h | proliferation in the presence of heregulin and lapatinib (SK-BR-3 cells [2]; [9]): more effective than Ab6 | proliferation (SK-BR-3 cells [2]; [10]): reduced proliferation | proliferation in the presence of heregulin and lapatinib (BT-474 cells [3]; [9]): anti-proliferative effects | proliferation in the presence of heregulin (BT-474 cells [3]; [11]): ablated the inhibitory effects | proliferation (BT-474 cells [3]; [10]): the effects were not significant | proliferation in the presence of heregulin and lapatinib (HCC1419 cells [4]; [9]): more effective than Ab6 | proliferation in the presence of heregulin (HCC1419 cells [4]; [11]): ablated the inhibitory effects | proliferation (HCC1419 cells [4]; [10]): reduced proliferation | HER3 degradation (total HER3) in the presence of heregulin and lapatinib (SK-BR-3 cells [5]; 50 nM antibody + 1 μM lapatinib + 6.25 nM heregulin, 3 or 6 hours, compared with Ab6): higher levels of HER3 degradation | pAkt levels in the presence of heregulin (SK-BR-3 cells [5]; 50 nM antibody + heregulin 6.25 nM, 24 hours): a reduction | levels of pHER3, pErk and pAkt (S473, T308) (SK-BR-3 cells [5]; 50 nM antibody + lapatinib + heregulin 6.25 nM): lower levels | HER3 degradation (total HER3) at 3 or 9 hours (SK-BR-3 cells [5]; 50 nM antibody, compared with Ab6): higher levels of HER3 degradation | total HER3 levels / HER3 degradation at 24 hours (SK-BR-3 cells [5]; 50 nM antibody, no heregulin): increased degradation | pErk levels at one hour (SK-BR-3 cells [5]; 50 nM antibody, one hour, versus trastuzumab, pertuzumab, TAb6 or PAb6, not sustained at 24 hours): lower | total HER3 levels / HER3 degradation at 24 hours (BT-474 cells [6]; no heregulin): increased degradation | pErk levels at one hour (BT-474 cells [6]; one hour, versus trastuzumab, pertuzumab, TAb6 or PAb6, not sustained at 24 hours): lower | levels of pHER3, pErk and pAkt (S473, T308) (HCC1419 cells [7]): lower levels | localization following 15 minutes of treatment (SK-BR-3 cells [8]): internalized into early endosomes | rate of internalization into EEA-1 positive early endosomes (SK-BR-3 cells [8]): more rapidly than Ab6 | time of treatment within which antibody enters EEA-1 positive early endosomes (SK-BR-3 cells [8]; 37° C.): ≤ 5 min | localization within one hour of treatment (SK-BR-3 cells [8]; 15 minutes pulse, 45 minutes chase): present in LAMP-1+ lysosomes

Source: US10519247B2, “Targeting HER2 and HER3 with bispecific antibodies in cancerous cells” (Board of Regents, The University of Texas System, priority 2013, dated 2019)
